According to PubChem BioAssay AID1458 (National Center for Advancing Translational Sciences (NCATS), 2008):
In all, about 210,000 compounds went through this assay and about 5,900 (2.8%) were called active. This list was built around the results that the source calls inconclusive (neither active nor inactive); the mix of calls is not that of the screen. Calls follow the shape of the dose curve; as a rule, active = well fitted activation curve with a large enough effect; inconclusive = small, poorly fitted or top-dose-only effect; inactive = no such curve, though single readings can be large or run the other way. A potency beside an inconclusive call is a rough fit, not a confirmed value.

Assay: qHTS Assay for Enhancers of SMN2 Splice Variant Expression; also: nearly all actives have a fitted effect of over 55% in size; as to activity change, positive = activation: % of control where 0% means no effect
Conditions: HEK293 SMN2-luciferase splicing reporter, luminescence, 30-36 h; activity change, positive = activation: at 46.1 µM (top of the series)
Summary of the method: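 HEK293 cells carry an SMN2 […]–luciferase reporter in which exon 7 inclusion puts luciferase in frame. Cells were plated 10-12 h before compound addition, then incubated 30-36 h at 37C. ONE-Glo luminescence was read; sodium butyrate at 4.5 mM final served as control.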
Potency is read from the fitted curve at half-maximal effect; tags tell the direction and shape of the fitted curve.

| Structure (SMILES) | Potency | activity change, positive = activation |
| --- | --- | --- |
| Cc1nc(NC(=O)COC(=O)CCS(=O)(=O)c2ccccc2Cl)c(Cl)cc1Cl | inconclusive: 0.355 µM [activator, partial curve, poor fit] |  |
| Nc1c(C(=O)NCCc2ccccc2)nnn1Cc1ccccc1 | inconclusive: 22.4 µM [activator, single point] |  |
| CC1CCCCN1C(=O)CSCC(=O)Nc1nc(-c2cccs2)cs1 (centres undefined) | inconclusive: 20 µM [activator, single point] |  |
| O=C(Nc1cccc(Cl)c1)c1csc(-c2ccccc2)n1 | inconclusive: 35.5 µM [activator, single point] |  |
| O=Nc1c(O)[nH]c2ccccc12.[Cu].[O-]/N=C1/C(=[OH+])Nc2ccccc21 |  | inactive: -5.7% [at 9.22 µM] |
| Cc1cc(C2=NNC(=NC3CCCCC3)SC2)c(C)n1-c1c(C)n(C)n(-c2ccccc2)c1=O | inconclusive: 0.0316 µM [activator, full curve, poor fit] |  |
| COc1ccc(N(CC(=O)N/N=C/c2cccs2)S(=O)(=O)c2ccccc2)cc1 | inactive |  |
| CC(C)NC(=O)COC(=O)c1ccc(O)cc1 | inactive |  |
| COc1cccc2c(=O)c(C(=O)NCc3cccs3)c[nH]c12 | inconclusive: 3.16 µM [activator, partial curve, poor fit] |  |
| O=C(Nc1ccc(-c2cn3ccccc3n2)cc1)c1cccs1 | active: 11.2 µM |  |
| COc1cc(OC)c(OC)cc1CN1CCN(Cc2cccn2C)CC1 | inactive |  |
| CCC(=O)NNC(=O)CCC(=O)Nc1ccccc1 | inconclusive: 5.62 µM [activator, single point] |  |
| Brc1ccc2oc3c(N4CCOCC4)ncnc3c2c1 | inactive |  |
| C=CCn1c(SCC(=O)OC)nc2sc3c(c2c1=O)CCN(C)C3 | inconclusive: 22.4 µM [activator, single point] |  |
| Cc1cccc(C(=O)Nc2nc(C)c(C(=O)Nc3ccc4c(c3)CCC4)s2)c1 | inconclusive: 25.1 µM [activator, single point] |  |
| O=C(Nc1ccc2c(c1)OCCO2)c1cnccn1 | active: 12.6 µM |  |
| Oc1ccc2c(c1)oc1cc(O)ccc12 | inconclusive: 15.8 µM [activator, single point] |  |
| Cc1ccc(-c2cc(N)n(-c3ccc(F)cc3)n2)cc1 | active: 12.6 µM |  |
| O=c1c(-c2cc3ccccc3o2)[n+]([O-])c2ccccc2n1OCc1ccccn1 | inconclusive: 7.94 µM [activator, partial curve] |  |
| CCOC(=O)C1CCN(c2ncnc3c2oc2ccccc23)CC1 | inactive |  |
| O=C(c1ccc(N2CCN(CCO)CC2)nc1)N1CCOCC1 | inactive |  |
| CC(C)(C(=O)Nc1nccs1)c1ccccc1 | inactive |  |
| Cc1ccc(Cl)cc1N1CCN(C(=O)c2ccc3c(c2)N(Cc2ccc(F)cc2)CCS3)CC1 | inactive |  |
| CCn1cc([N+](=O)[O-])c(C(=O)Nc2ccc3c(c2)OCCO3)n1 | inconclusive: 3.55 µM [activator, partial curve, poor fit] |  |
| O=c1c2ccccc2ncn1CCCCOc1ccc(Br)cc1 | inactive |  |
| C/C=C/c1ccc2oc(-c3ccc(O)cc3)c(C)c2c1 | inconclusive: 35.5 µM [activator, single point] |  |
| NS(=O)(=O)c1ccc(CCNC(=O)CSc2nc3ccccc3c3nc(CCN4CCCCC4)nn23)cc1 | inconclusive: 0.0891 µM [activator, full curve, poor fit] |  |

| Structure (SMILES) | Potency | activity change, positive = activation |
| --- | --- | --- |
| O=C(CSCC(=O)OCC(=O)c1ccc(Br)cc1)Nc1ccc(Br)cc1 | inactive |  |
| O=C(CC(Nc1ccc(Cl)cc1)C(=O)O)c1ccccc1 (centres undefined) | active: 17.8 µM |  |
| CSc1nc(-c2ccco2)nn1C(=O)c1cccs1 | inconclusive: 0.199 µM [activator, full curve] |  |
| O=C(O)c1ccc(Nc2nc3c(s2)CCCC3)cc1 | active: 0.631 µM |  |
| CCOc1ccccc1NC(=O)C1=C(C)NC(=S)NC1c1cccs1 (centres undefined) | inactive |  |
| C/C(=N\NC(=O)COc1ccc(C#N)cc1)c1ccc(N2CCOCC2)cc1 | inconclusive: 5.62 µM [activator, single point] |  |
| CCC(C)c1ccc(NC(=O)c2cccnc2)cc1 (centres undefined) | active: 12.6 µM |  |
| CCOc1ccc(/C=N/NC(=O)CC(=O)Nc2ccc(Cl)c(Cl)c2)cc1 | inconclusive: 3.16 µM [activator, single point] |  |
| COc1ccc(/C(C)=N/Nc2ccc(F)cc2F)c(O)c1 | inconclusive: 20 µM [activator, single point] |  |
| COc1ccc(OC)c(NC(=O)CN(c2ccc(C(C)C)cc2)S(=O)(=O)c2c(C)noc2C)c1 | inactive |  |
| CS(=O)(=O)c1cnc2c(-c3ccsc3)cnn2c1N | active: 12.6 µM |  |
| CN(C)S(=O)(=O)c1cccc(-c2nn(-c3ccccc3)cc2/C=C(/C#N)C(=O)NCc2ccco2)c1 | inconclusive: 2 µM [activator, single point] |  |
| COc1nc2ccccc2cc1-c1noc(-c2cccnc2)n1 | inactive |  |
| CCOc1ccc(CCNC(=O)Cn2nc(CC)n3c(cc4ccccc43)c2=O)cc1 | inactive |  |
| COc1cccc(Nc2nc(-c3sc(N)nc3C)cs2)c1 | inconclusive: 35.5 µM [activator, partial curve, poor fit] |  |
| CC(=O)N1N=C(c2ccc(C)cc2)OC1c1ccc(C(C)C)cc1 (centres undefined) | inconclusive: 22.4 µM [activator, single point] |  |
| CCc1ccc(NC(=O)C2CCN(c3nn4c(=O)cc(C)nc4s3)CC2)cc1 | inactive |  |
| CCC(=O)Nc1nnc(C(C)(C)C)s1 | inconclusive: 0.0891 µM [activator, full curve, poor fit] |  |
| CCn1cc(Br)c(C(=O)Nc2ccc(OC)cc2)n1 | active: 14.1 µM |  |
| Cc1ccc(N2CCOCC2)c2c1C(=O)c1ccccc1C2=O | inactive |  |
| Cc1ccc(NC(=O)c2ccc3c(c2)OCCO3)cc1 | active: 0.708 µM |  |
| CC(C)CNC(=O)c1cccc(NC(=O)CSc2ccc(Cl)cc2)c1 | inactive |  |
| CCOC(=O)C1=C(C)N=C2SCCC(=O)N2C1c1ccc(OCc2ccccc2)cc1 (centres undefined) | inconclusive: 0.02 µM [activator, full curve, poor fit] |  |
| C/C(N)=C(/C#N)C(=O)CSc1nnc(Cc2ccccc2F)n1N | inactive |  |
| O=c1c(-c2ccc(O)cc2)coc2cc(OC3OC(CO)C(O)C(O)C3O)cc(O)c12 (centres undefined) | inconclusive: 25.1 µM [activator, single point] |  |
| CCCc1cc(N2CCCC(C(=O)Nc3ccc(OC)cc3OC)C2)n2ncnc2n1 (centres undefined) | inactive |  |
| CCn1c(=S)ccc2ccc(OC)cc21 | inconclusive: 0.0355 µM [activator, full curve, poor fit] |  |

| Structure (SMILES) | Potency | activity change, positive = activation |
| --- | --- | --- |
| COc1ccc(C(=O)Nc2cccc(N(C)S(C)(=O)=O)c2)cc1OC | active: 12.6 µM |  |
| CC1(C)CC(=O)C(C=Nc2ccc3c(c2)OCO3)=C(O)C1 | inconclusive: 22.4 µM [activator, partial curve, poor fit] |  |
| CCC(CC)NC(=O)c1cc2c(C)nn(Cc3ccccc3Cl)c2s1 |  | inconclusive: 41.3% [activator] |
| O=C(/C=C/c1ccccc1)N1CCCN(C(=O)/C=C/c2ccccc2)CC1 | inactive |  |
| Cc1ccc(Nc2c(-c3ccccn3)nc3ccc(Br)cn23)cc1 | inactive |  |
| Cn1c(=O)n(CCOc2ccccc2Cl)c2ccccc21 | inconclusive: 28.2 µM [activator, partial curve] |  |
| CCCCNC(=O)CCC(=O)NNc1nc2ccccc2c2nc(C)nn12 | inconclusive: 0.355 µM [activator, full curve, poor fit] |  |
| CCCn1nnc(NC(=S)NC(=O)c2cccs2)n1 | inconclusive: 20 µM [activator, partial curve] |  |
| C/C(=N\NC(=O)c1c(Br)cnn1C)c1ccc(NC(=O)c2ccc(F)cc2)cc1 | inconclusive: 11.2 µM [activator, partial curve] |  |
| COc1cc(CNCCN2CCOCC2)ccc1OCc1ccc(Cl)cc1 |  | inconclusive: 32.7% [activator] |
| COc1cccc(C2CC(=O)Nc3cc4c(cc32)OCCO4)c1OC(C)C (centres undefined) | inactive |  |
| O=C(CN1CCOc2ccccc21)N1CCCC1 | inactive |  |
| c1ccc2[nH]c(-c3nc4ccccc4[nH]3)nc2c1 | active: 7.94 µM |  |
| CC(C)Cc1ccc(/C=C/C(=O)N2CCOCC2)cc1 | active: 12.6 µM |  |
| Cc1cccc(CSc2cn(CC(=O)N3CCOCC3)c3ccccc23)c1 | inconclusive: 12.6 µM [activator, partial curve, poor fit] |  |
| O=C(Cc1c[nH]c2ccccc12)NCc1cccs1 | inconclusive: 35.5 µM [activator, single point] |  |
| N#Cc1cccc(-c2cc(NCc3cccs3)ncn2)c1 | inconclusive: 0.0141 µM [activator, full curve, poor fit] |  |
| COc1cc(/C=C2/C(=N)N3C=CSC3=NC2=O)ccc1OCCCOc1c(C)cccc1C | inconclusive: 35.5 µM [activator, single point] |  |
| O=C(Nc1ccc2c(c1)OCO2)c1ccc(COc2ccc3c(c2)CCC3)o1 | active: 11.2 µM |  |
| COc1cc(C2Nc3ccc4ncccc4c3C3=C2C(=O)CCC3)cc(OC)c1O (centres undefined) | active: 10 µM |  |
| CC(=O)NC(=S)Nc1ccc(-c2nc3ccc(C)cc3s2)cc1 | active: 12.6 µM |  |
| CC1N/C(=C\C(=O)c2ccccc2)N(O)C1(C)C (centres undefined) | inconclusive: 15.8 µM [activator, partial curve] |  |
| CSc1ccc(CCNC(=O)Cn2nc(C)n3c(cc4sccc43)c2=O)cc1 | inactive |  |
| Cc1ccc(/C=C/c2nc3ccccc3s2)s1 | inactive |  |
| CCCCC(=O)Nc1nnc(C)s1 | inconclusive: 6.31 µM [activator, single point] |  |
